Assay results taken from article PMC12136788.
The other results are listed elsewhere or left out.

B1: chr17:76725537:76725647:-|CDS|ENSG00000070495|unk|FALSE|unique (ssRNA)
RNA: GGGAGUUCUACAGUCCGACGAUCUACUCAGUGAAGAUGAAGAUGAAAUACUACAUCGAGUACAUGGAGAGCACUCGAGAUGAUAGUCCCCUUUACAUCUUUGACAGCAGCUAUGGUGAACACCCUAAAAGAAGGAAACUUUUGCAACAGAGGAUUGAGCAUCA
B2: chr20:45293444:45293825:-|three_prime_utr|ENSG00000124159|control|control|control (ssRNA)
RNA: GGGAGUUCUACAGUCCGACGAUCCGGGGCGGAGGCGCUGGCGGGCUUCCGGCAUUGAGCUGAGUUGGCCUCGCCCGGACCAUUAGGCGGACUGCGGCGUCAGGGGGAUAGCGGGUGGUGAGGGAAGGGGCACGUGCUAGACCGCAACAGAGGAUUGAGCAUCA
B3: chr4:99204923:99205063:-|CDS|ENSG00000172955|control|control|control (ssRNA)
RNA: GGGAGUUCUACAGUCCGACGAUCGAAGAGCAGACAGCACAUCCCUAAACUGGUUGCUGAUUAUAUGGCAGAGAAGUUGAAUCUAGAUCCACUAAUUACUCAUACUCUGAAUCUUGAUAAAAUCAAUGAAGCAGUUGAAUUAAUCAACAGAGGAUUGAGCAUCA
B4: chr10:110602053:110602155:+|CDS|ENSG00000108055|unk|total|mutant (ssRNA)
RNA: GGGAGUUCUACAGUCCGACGAUCCAGUUUGUAAAUUUCUCCGAGCAGAAAGAAAAGUUAAUAAAGCGUCAAGAAGAGUCCGACCGGGGUUACAAAUCAAUCAUGGAACUGAUGAAUGUACUUGAACUUCGGAAAUAUGAAGCUCAACAGAGGAUUGAGCAUCA
B5: chr17:41822664:41822765:+|3pUTR|ENSG00000141756|msi1|FALSE|unique (ssRNA)
RNA: GGGAGUUCUACAGUCCGACGAUCUUCCUUAAAAUGUUUGGAUUUGCAAAGCCAAUUUGGGGCCUGUGGAGCCUGGGGUUGGAUAGGGCCAUGGCUGGUCCCCCACCAUACCUCCCCUCCACAUCACUGACACAGCUGAGCUUGCAACAGAGGAUUGAGCAUCA
B6: chr22:41636480:41636706:+|CDS|ENSG00000196419|unk|FALSE|unique (ssRNA)
RNA: GGGAGUUCUACAGUCCGACGAUCAUGGGCCACGGAUCUGACUACUCACUCAGUGAAGUGCUGUGGGUCUGUGCCAACCUCUUUAGUGAUGUCCAAUUCAAGAUGAGUCAUAAGAGGAUCAUGCUGUUCACCAAUGAAGACAACCAACAGAGGAUUGAGCAUCA
B7: chr4:70689993:70690094:+|CDS|ENSG00000132467|unk|total|mutant (ssRNA)
RNA: GGGAGUUCUACAGUCCGACGAUCAGAGCCAAAAUCCGAAGAAGAGGCCAGGUUCGUGAAGUUCGUAAAGAAGAGCAACGUUACCGUGGUGAAUUAUCUGGCAUUCGUGCAGGAGUUAAAAAGAGCAUUAAGCUUAAAUGAAGUCAACAGAGGAUUGAGCAUCA
B8: chr12:39618871:39619093:-|CDS|ENSG00000173208|unk|total|mutant (ssRNA)
RNA: GGGAGUUCUACAGUCCGACGAUCUAUUAUGAUGUUCUCCCAAUCUGUGGCUCACUUGUAUUCCAAUCUGACCAAACCUAUUUCCGAUGUAAUGCUGACCUCCUAUACACUCAUUCAAACUGCUACAUCCAGAGGAGCAAGCCCCAACAGAGGAUUGAGCAUCA
B9: chr12:14501823:14501924:+|3pUTR|ENSG00000171681|unk|total|mutant (ssRNA)
RNA: GGGAGUUCUACAGUCCGACGAUCUUUUGUUGUUUGCUCUUUUGCUUUAAAUAUUCUCCAAAUUACCAUUUAUGCAACAUGGUCCGGGUUAAUACUGCAUGGUAUUCAUUUAUCUUGUUUCAUGAACUUUCCAGUACUGUACAACAACAGAGGAUUGAGCAUCA
B10: chr5:137939581:137939637:-|3pUTR|ENSG00000031003|msi1_unk|total|mutant (ssRNA)
RNA: GGGAGUUCUACAGUCCGACGAUCUGUCCGUAAAAUUUUGCAAUUCGCUGGUCACACAGCUCCCGGAUGAAGAUAACAGUUGGCCGACCAAAAGGUGACCUCGCUCCGUAUAUUGAAAACACACACCACACAUCACACACAGAACAACAGAGGAUUGAGCAUCA
B11: ENSG00000021826:stop:overlap|stop_codon|ENSG00000021826|stop_codon|NA|stop_codon (ssRNA)
RNA: GGGAGUUCUACAGUCCGACGAUCGCAAGGUGGACUCCAAGAGUCUUUUCCACUACAGGCAGUACAGUGCUGGAAAAGCAGCAUAGAGAUGCAGACACCCCAGCCCCAUUAUUAAAUCAACCUGAGCCACAUGUUAUCUAAAGGCAACAGAGGAUUGAGCAUCA
B12: ENSG00000198589:be:win_4701|CDS|ENSG00000198589|bound_else_gene|NA|bound_elsewhere_windowed (ssRNA)
RNA: GGGAGUUCUACAGUCCGACGAUCCAGUGAAAAUGAGAAUGUAUCACUCUCUGAAAUCACACCAGCAGCAUUCAGCACUUUAACUACGGCAUCAGUGGAAGAAUCUGAAAGCACAUCAUCUGCUCGAAGGAGGGACUCAGGCAUCAACAGAGGAUUGAGCAUCA
B13: chrX:51490010:51491748:-|three_prime_utr|ENSG00000196368|control|control|control (ssRNA)
RNA: GGGAGUUCUACAGUCCGACGAUCACUCCUUCCCUGUCUAUACCACUGACUCUUGCUCUGGUUGUUGUACUCUUAUACGUGAAUAGACUCUUAAUUCAGCACCUAUAGCCUUUUGUUGUGCUUUUUUGAUGUGUCUGCCUUCAUCAACAGAGGAUUGAGCAUCA
B14: chr15:77046258:77046342:-|3pUTR|ENSG00000140391|msi1_unk|total|mutant (ssRNA)
RNA: GGGAGUUCUACAGUCCGACGAUCAAAAAUAUUUACUGCCGUCCAAUAAGACCGCAGCUGUACAAAAUGACUAAAACCGAUUGCCGGAUCAUAUGGCGUAUAUCUUGGUUCAUCUUCAAAAUCAGAGACUGAGCUUUGAAACUACAACAGAGGAUUGAGCAUCA
B15: chr13:51761002:51761103:+|3pUTR|ENSG00000139668|unk|FALSE|unique (ssRNA)
RNA: GGGAGUUCUACAGUCCGACGAUCACGGCAAGAUUGUAAUCCUGCUGUAUUCCUCGCCCUCUGUAUUCUAUCCCUUUAAAAACUAGAUAUUUAAACAUUUUAUCCUAAUGUGUUUCAUCAGAACACUUUGCACACUUUCUUACUCAACAGAGGAUUGAGCAUCA
B16: chr15:56434137:56434395:-|CDS|ENSG00000138587|control|control|control (ssRNA)
RNA: GGGAGUUCUACAGUCCGACGAUCAGAGGAAGAGGAGAACUUUAGAAAAACUAUGCUAGCUAAAUUUGCUGAGGAUGAUCGAAUAGAAUUAAUGAAUGCUCAGAAACAAAGAAUGAAGCAGCUGGAACACAGGAGGGCUGUGGACAACAGAGGAUUGAGCAUCA
B17: chr8:70573615:70573716:-|3pUTR|ENSG00000067167|msi1|total|mutant (ssRNA)
RNA: GGGAGUUCUACAGUCCGACGAUCCAGUGUUCACAUCUUGUUCCCCAUUUCUCACUUGUGUCACCAGCUGUUUGUGCCAUUUUCCGUGUAAAAGUUGCAGACCUAUCCGAUCUGCAGUUUAAGUUGCCAUGCUGCCCGGAAAUUCAACAGAGGAUUGAGCAUCA
B18: ENSG00000070961:be:win_1951|CDS|ENSG00000070961|bound_else_gene|NA|bound_elsewhere_windowed (ssRNA)
RNA: GGGAGUUCUACAGUCCGACGAUCGCAUUCAGAGAUUUUCCAGCAGGAGAACCAGAACCAGAGUGGGAUAAUGAAAAUGAUAUUGUCACCGGCCUUACAUGCAUUGCUGUUGUGGGGAUUGAAGAUCCUGUGAGACCUGAGGUGCAACAGAGGAUUGAGCAUCA
B19: ENSG00000198589:be:win_6851|CDS|ENSG00000198589|bound_else_gene|NA|bound_elsewhere_windowed (ssRNA)
RNA: GGGAGUUCUACAGUCCGACGAUCAAGUUCCAAAGUUUCACUAUGGUACUCAUUACUCAACUGCAAGUUUUGUUCUUGCAUGGCUGCUAAGAAUAGAACCCUUUACAACUUAUUUCCUAAAUUUGCAAGGAGGCAAAUUUGAUCCAACAGAGGAUUGAGCAUCA
B20: ENSG00000114744:stop:overlap|stop_codon|ENSG00000114744|stop_codon|NA|stop_codon (ssRNA)
RNA: GGGAGUUCUACAGUCCGACGAUCAACAAGCAUUGGAAGAGAUGAAGACAAAUCACUGUAGGAGAGUUGUUCGCAACAUCAAGUAGUACCAGUUUUAAGGUUUUAAUUCAUUUGAAUCACUUAUGAAUUGAUGAUAUACAGCAACAACAGAGGAUUGAGCAUCA
B21: chr2:46903092:46903222:-|3pUTR|ENSG00000180398|msi1|FALSE|unique (ssRNA)
RNA: GGGAGUUCUACAGUCCGACGAUCAAGCAGAAACCCCUGAUAAACUGAUCAGAUCUCAUGAGACUUAUUCACUGUCACGAGAAUAGCACGGGAAAGACUGGCCCCCAUGAUUCAAUUACCUCCCCCUGGGUCUGUCCCACAACACAACAGAGGAUUGAGCAUCA
B22: ENSG00000140057:stop:overlap|stop_codon|ENSG00000140057|stop_codon|NA|stop_codon (ssRNA)
RNA: GGGAGUUCUACAGUCCGACGAUCCGCGGCCUGACUUUGCGGUGGAGACGUACUCUGUAAGUCCCGGAGGCUCUGGCCAGGAGUAGACAGAGGGAAGAGUCACCUUCCGCUCCAACGCCUUGACAACUUGUUUUACUGUUUGCCCAACAGAGGAUUGAGCAUCA

biological target: MSI1 full-length (mouse, UniProt Q61474 1-362); assay: nsRBNS (natural sequence RNA bind-n-seq); RBNS binding buffer (assumed for nsRBNS): 25 mM Tris pH 7.5, 150 mM KCl, 3 mM MgCl2, 0.01% Triton X-100, 500 ug/ml BSA, 20 U/ml SUPERase-In, 4 C; UNK is unkempt and MSI1 is Musashi-1; names of the RNAs are library labels; protein concentration not given here; high values mean tight binding
Sequence of UniProt Q61474 (Q61474 whole entry): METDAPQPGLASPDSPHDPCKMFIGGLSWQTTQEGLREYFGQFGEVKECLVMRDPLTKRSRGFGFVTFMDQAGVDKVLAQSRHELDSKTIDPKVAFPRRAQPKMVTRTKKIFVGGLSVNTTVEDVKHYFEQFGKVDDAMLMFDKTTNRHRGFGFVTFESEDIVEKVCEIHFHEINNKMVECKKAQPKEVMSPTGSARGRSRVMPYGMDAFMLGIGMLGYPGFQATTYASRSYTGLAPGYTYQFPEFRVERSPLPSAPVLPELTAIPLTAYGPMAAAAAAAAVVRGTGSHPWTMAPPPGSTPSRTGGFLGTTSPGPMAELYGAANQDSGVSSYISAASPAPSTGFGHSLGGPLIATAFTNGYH

Going from B1 to B2, the binding signal rises from 0.324 enrichment R to 0.527 enrichment R.

Compared with B3, B4 is lower in binding signal: 0.405 enrichment R for the first, 0.336 enrichment R for the second.

First: B5
Second: B6
The binding signal of the first is higher: 0.452 enrichment R for the first, 0.384 enrichment R for the second.

Compared with B7, B8 is higher in binding signal: 0.548 enrichment R for the first, 0.621 enrichment R for the second.

Going from B9 to B10, the binding signal rises from 0.513 enrichment R to 0.8 enrichment R.

First: B11
Second: B12
The binding signal of the first is lower: 0.308 enrichment R for the first, 0.426 enrichment R for the second.

Compared with B13, B14 is lower in binding signal: 1.36 enrichment R for the first, 0.244 enrichment R for the second.

Compared with B15, B16 is lower in binding signal: 14.4 enrichment R for the first, 3.42 enrichment R for the second.

Going from B17 to B18, the binding signal falls from 0.472 enrichment R to 0.449 enrichment R.

First: B19
Second: B20
The binding signal of the first is lower: 0.297 enrichment R for the first, 16.3 enrichment R for the second.

Compared with B21, B22 is higher in binding signal: 0.605 enrichment R for the first, 1.06 enrichment R for the second.
